Reference: PubChem BioAssay (NCI)
Several values for one entry are separate records, joined by “and”; a condition that tells them apart may be missing. Equal values may be shown once.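 Compound exposure: 48 hours, 5 concentrations, 96-well plates. Abbreviation: GI50, concentration required for 50% inhibition of growth. Definition used: TGI = concentration required for complete inhibition of growth.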

Tested on: NCI-H322M lung
Experiment: DTP human tumour cell line panel, 48 h

| Structure (SMILES) | TGI [µM] | GI50 |
| --- | --- | --- |
| OC(c1ccc(Cl)cc1)(c1ccc(Cl)cc1)c1cncnc1 | 31.1 |  |
| COC(=O)c1c(C)[nH]c2c1C(=O)C(=O)c1nc(C)c(C)nc1-2 | 60.5 |  |
| O=c1cc(-c2ccccc2)[nH]c2ccc(S)cc12 | > 100 |  |
| CC(=O)c1c(SCCN2CCOCC2)n(-c2ccccc2)c(=S)n(-c2ccccc2)c1=O | > 57.6 |  |
| CCc1cccc(C(C)C)c1NC(=O)CCl | > 100 |  |
| O=C1Nc2cc(-c3cccc(O)c3)ccc2/C1=C/c1ccc[nH]1 | 16.6 | 1.29 µM |
| Cc1cc(S(=O)(=O)Nc2nnc3c4ccccc4cnn23)c(S)cc1Cl | > 100 |  |
| O=S(=O)(O)c1cc(S(=O)(=O)O)c2cc(N=Nc3c(O)ccc4ccccc34)ccc2c1 | > 100 |  |
| CCOC(=O)Nc1nc2ccccc2[nH]1 | > 100 | 16.2 µM and 6.05 µM |
| O=C(O)[C@@H]1OCCOCCO[C@@H](C(=O)O)[C@H](C(=O)O)OCCOCCO[C@H]1C(=O)O | > 100 |  |
| CC1C2CCC3C(O)C2(CC(O)C2(O)C1CC(O)C2(C)C)CC3(C)O (stereo unspecified) | > 100 |  |
| CCOC(=O)C(Cc1c[nH]c2cc(N(CCO)CCO)ccc12)(NC(C)=O)C(=O)OCC | > 1000 | > 1000 µM |
| CNCCCNC(=S)Cn1cc(C)c(=O)[nH]c1=O | > 100 |  |
| COc1cc2c(oc(=O)c3c4occc4cc(OC)c23)c2cccc(OCc3ccccc3)c12 | > 100 |  |
| C[C@]12Cc3cnc(-c4ccccc4)nc3C[C@@H]1CC[C@@H]1[C@@H]2CC[C@@]2(C)[C@H]1CC[C@]2(C)O | 45.1 |  |
| COc1ccc(C2C(C#N)=C(S)N(C3OC(COC(C)=O)C(OC(C)=O)C(OC(C)=O)C3OC(C)=O)C(C)=C2C(C)=O)cc1 (stereo unspecified) | > 100 |  |
| c1ccc2c(c1)OCCc1cn[nH]c1-2 | > 100 |  |
| O=C1CCC(=O)N1CNc1ccc2c(c1)S(=O)(=O)c1ccccc1O2 | > 100 |  |
| CC(C)(C)OP(=O)(OC(C)(C)C)C(O)c1ccc(/C=C(\C#N)C(N)=O)cc1 (stereo unspecified) | > 100 |  |
| N#Cc1c(C#N)c(-c2ccccc2)n(Cc2ccccc2)c1N | > 100 |  |
| Cc1c(O)c(OC2OC(CO)C(O)C(O)C2O)cc2c1C=C[C@@H]1[C@@]2(C)C(=O)C[C@]2(C)[C@@H]([C@@](C)(O)C(O)/C=C/C(C)(C)O)[C@H](O)C[C@@]12C (stereo partly specified) | > 100 |  |
| COc1cccc(-c2nn(-c3ccccc3)cc2-c2ccnc(NCCCNC(=O)c3cccc(C(F)(F)F)c3)c2)c1 | 55.2 | 12.4 µM |
| CCC/C=C\C=C\C1(NS(=O)(=O)c2ccc(C)cc2)CCC(C(C)(C)C)CC1 (stereo unspecified) | 44.8 |  |
| C[C@]12CC[C@@H]3c4ccc(O)cc4CC[C@H]3[C@@H]1CC[C@@H]2NS(=O)(=O)c1ccc(Br)cc1 | 16.7 | 4.58 µM |
| COc1cc(Cl)cc(-c2nn(-c3cccc(NC(=O)Nc4cccc(C(F)(F)F)c4)c3)cc2-c2ccncc2)c1 | 22.5 | 2.63 µM |
